Laboratory results published in PubChem BioAssay AID1345082 (National Center for Advancing Translational Sciences (NCATS), 2018).
Out of some 94,000 compounds screened, about 4,000 (4.3%) were called active. The inconclusive results got no clear call from the source; some entries with a clear call stand among them for comparison. Calls come from the whole dose curve; as a rule, active = well fitted inhibition curve with a large enough effect; inconclusive = small, poorly fitted or top-dose-only effect; inactive = no such curve, though single readings can be large or run the other way. Potencies beside an inconclusive call are fits to weak or partial responses and may not hold up.

test: Cytotoxic Profiling in NIH 3T3 Cell Line of Diverse Libraries Using Quantitative High-Throughput Screening; conditions: NIH 3T3 viability, CellTiter-Glo ATP luminescence, 48-72 h; activity change, negative = cytotoxicity: at 96.7 µM (top of the series) unless noted; series mostly up to 96.7 µM; note: nearly all actives have a fitted effect of over 55% in size
In short: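 First NIH 3T3 cells are plated at 400 cells/well; next compound is pinned in; then plates incubate 48 or 72 hr at 37 °C; finally CellTiter-Glo is added and luminescence read after 10 min.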
% is set by controls: 0 for no effect and ±100 for the full control effect; potency is the fitted concentration of half-maximal effect; tags give direction and shape of the fitted curve.

Which Potency does the source give for O=C(NCc1ccc(C(F)(F)F)cc1)[C@@H]1Cc2nc[nH]c2CN1Cc1ccccn1 here?
Its Potency is inconclusive: 56.2 µM [inhibitor, partial curve, poor fit].

For O=C(CN1C(=O)C(c2ccccc2)=NC12CCCC2)Nc1ccc(C(F)(F)F)cc1, which Potency is on record?
The Potency was inconclusive: 50.1 µM [inhibitor, partial curve, poor fit].

Which “activity change, negative = cytotoxicity” value does the source give for COC1CCOC2(CCN(C(=O)c3nn(C)c4ccccc34)CC2)C1 (configuration not stated) here?
The value was inactive: 0.838%.

For CCCCc1ncc(-c2c(-c3ccccc3)ncn2CC2(CO)CCC2)[nH]1, which Potency is on record?
Its Potency is inconclusive: 44.7 µM [inhibitor, partial curve, poor fit].

Which Potency does the source give for COC(=O)N1CCC(N2C(=O)c3c(c(C)nn3-c3ccccc3)C2C2CC2)C1 (configuration not stated) here?
The Potency was inconclusive: 35.5 µM [inhibitor, partial curve, poor fit].

Which Potency does the source give for O=C(c1ccc(F)cc1)N1CCC2(CC1)NC(=O)N(c1ccccc1Cl)N2 here?
The Potency was inconclusive: 39.8 µM [inhibitor, partial curve, poor fit].

With CCn1cc(C(=O)N2CCCC(CCc3cccc(F)c3)C2)cn1 (configuration not stated) as the compound, how does the Potency read?
The Potency was inconclusive: 35.5 µM [inhibitor, full curve].

With Cc1ccc(N2CCN(C(=O)C3CCCN(c4cnn(Cc5ccccc5)c(=O)c4)C3)CC2)cc1 (configuration not stated) as the compound, how does the Potency read?
The Potency was inconclusive: 50.1 µM [inhibitor, partial curve, poor fit].

Which Potency does the source give for COc1cccc(N2CCN(C(=O)C3CCN(c4cnc5nccnc5c4)CC3)CC2)c1 here?
Its Potency is inconclusive: 44.7 µM [inhibitor, partial curve, poor fit].

For CCOCCCNc1ncnc2c1CN(C1CCNC1)C(=O)CN2C (configuration not stated), which “activity change, negative = cytotoxicity” value is on record?
Its value is inactive: 4.38%.

Which Potency does the source give for COc1ccc(Nc2ccnc(N3CCN(C(=O)c4cccc(OC)c4)CC3)n2)cc1 here?
Its Potency is active: 25.1 µM.

For COc1cccc(-c2nc3cnccn3c2NCCC(=O)N2CCCC(C)C2)c1 (configuration not stated), which “outcome” value is on record?
Its value is “inactive”.

For COc1cccc([S+](=O)([O-])N2CCC(N3C(=O)c4c(c(C)nn4-c4ccccc4)C3C)CC2)c1 (configuration not stated), which “activity change, negative = cytotoxicity” value is on record?
Its value is inactive: -13.3%.

Which Potency does the source give for O=C(COc1ccc(F)cc1)N1CCC2(CC1)CN(C1CCC1)CC2CO (configuration not stated) here?
The Potency was inconclusive: 50.1 µM [inhibitor, partial curve, poor fit].

With O=C(NC1CCCCC1)[C@@H]1C[C@@H](O)CN1C1CCN(C(=O)c2ccccc2)CC1 as the compound, how does the “activity change, negative = cytotoxicity” value read?
Its value is inactive: 1.27%.

Which “activity change, negative = cytotoxicity” value does the source give for CNC(=O)c1cc(C)nc2onc(C3CCN([S+](=O)([O-])c4c(C)noc4C)CC3)c12 here?
The value was inactive: -13%.

For COc1ccc(-c2[nH]ncc2CN2CCn3nnc(CCC(=O)N4CCCC4)c3C2)cc1, which “activity change, negative = cytotoxicity” value is on record?
Its value is inactive: -9.75%.

For CCc1ccc(CN2CCCC3(Cc4ccccc4CNC3=O)C2)s1 (configuration not stated), which “activity change, negative = cytotoxicity” value is on record?
The value was inactive: -20.5%.

Which Potency does the source give for Cc1ccc(Cn2cc(-c3ccncc3)cc2C(=O)O)cc1 here?
Its Potency is inconclusive: 50.1 µM [inhibitor, partial curve, poor fit].

With CCN1C(=O)C2CC3(CCN(Cc4cn[nH]c4-c4ccc(F)cc4)CC3)CN2C1=O (configuration not stated) as the compound, how does the “activity change, negative = cytotoxicity” value read?
The value was inactive: -11.4%.

For COc1ccccc1-c1cc(N2CCOCC2=O)c2cncn2c1, which Potency is on record?
The Potency was active: 100 µM.

For CCCCC(=O)Nc1ccc(C)cc1NC(=O)c1ccc(CN(C)C)o1, which “activity change, negative = cytotoxicity” value is on record?
The value was inactive: -2.35%.

With CC1=C[C@@H](CNC(=O)NCc2ccccc2)[C@H](C(C)C)C[C@H]1CC(=O)NCc1cccnc1 as the compound, how does the “activity change, negative = cytotoxicity” value read?
The value was inactive: -16.2%.

Which “outcome” value does the source give for O=C(O)CCCC(=O)N1Cc2ccccc2CC2(CCCN(Cc3ccccn3)C2)C1 (configuration not stated) here?
The value was “inactive”.

For O=C(NCC1CN(C(=O)CCc2ccccc2)CC12CN(c1ccccc1)C2)c1ccccc1 (configuration not stated), which “activity change, negative = cytotoxicity” value is on record?
The value was inactive: -22.6%.

Which Potency does the source give for CNC(=O)[C@@H]1CN(C(=O)c2ccc3ccccc3n2)C[C@H]1COC here?
Its Potency is inconclusive: 50.1 µM [inhibitor, partial curve, poor fit].

For Cc1c(-c2ccc(F)cc2)[nH]c2ccc(CNC(=O)CN3CCOC3=O)cc12, which Potency is on record?
The Potency was inconclusive: 31.6 µM [inhibitor, partial curve, poor fit].

For CC(C)(C)c1ccc(-c2cc(C[C@H]3CNCC[C@H]3CC(=O)N3CCC(Cc4ccccc4)CC3)no2)cc1, which “activity change, negative = cytotoxicity” value is on record?
The value was inactive: -5.07%.

Which Potency does the source give for COc1ccc(CN2CCCC3(C2)C(=NC2CCCCC2)NC(=O)N3c2cccc(OC)c2)cc1 (configuration not stated) here?
Its Potency is inconclusive: 44.7 µM [inhibitor, partial curve, poor fit].

Which “outcome” value does the source give for COCCNC(=O)CCC1CCN(C(=O)c2ccccc2Cl)CC1 here?
The value was “inactive”.

With CC1(COc2cccnc2)COc2ccc(C(=O)N3CCN(c4ccccn4)CC3)cc2N1 (configuration not stated) as the compound, how does the Potency read?
The Potency was inconclusive: 2.82 µM [inhibitor, full curve, poor fit].

For Cc1ccsc1-c1[nH]nc2ncc(-c3ccccc3O)nc12, which Potency is on record?
Its Potency is inconclusive: 44.7 µM [inhibitor, partial curve, poor fit].

With Cc1ccc(-c2cccc(CN3CCCC3C(=O)NCc3cccc(F)c3)c2)cc1Cl (configuration not stated) as the compound, how does the Potency read?
The Potency was inconclusive: 44.7 µM [inhibitor, partial curve, poor fit].

With CC(=O)Nc1cccc(-c2cc(-c3c(C)noc3C)cc3c2C(=O)N(C)C3)c1 as the compound, how does the Potency read?
The Potency was inconclusive: 39.8 µM [inhibitor, partial curve].

With Cc1ccc(C2Cn3nnc(C(=O)N4CCC(C(=O)NC5CCc6ccccc65)CC4)c3CO2)cc1 (configuration not stated) as the compound, how does the Potency read?
Its Potency is inconclusive: 50.1 µM [inhibitor, partial curve, poor fit].

Which Potency does the source give for Cc1nn(-c2ccc(F)cc2)c(Oc2ccc(F)cc2F)c1CCC(=O)NCC1CCCO1 (configuration not stated) here?
Its Potency is inconclusive: 44.7 µM [inhibitor, partial curve, poor fit].

With O=C(NC1CCN(CCn2nc3n(c2=O)CCCC3)C1)c1ccncc1 (configuration not stated) as the compound, how does the “outcome” value read?
Its value is “inactive”.

For CCC1(N2CCN(C)CC2)CCN(C(=O)CCC2CCCC2)C1 (configuration not stated), which “activity change, negative = cytotoxicity” value is on record?
The value was inactive: 1.67%.

Which Potency does the source give for Cc1ccc(-c2nc(C(=O)NCc3cccc(Br)c3)no2)cc1 here?
The Potency was inconclusive: 44.7 µM [inhibitor, partial curve, poor fit].

For CN(C)C(=O)c1cccnc1OC1CCN(S(=O)(=O)c2ccc3c(c2)CCCC3)C1 (configuration not stated), which Potency is on record?
Its Potency is inconclusive: 39.8 µM [inhibitor, partial curve, poor fit].

Which Potency does the source give for COc1ccc2c(c1)c(CN1CCc3nc(N4CCN(C)CC4)[nH]c(=O)c3CC1)cn2C here?
Its Potency is inconclusive: 44.7 µM [inhibitor, partial curve, poor fit].

Which Potency does the source give for CC(=O)N1CCc2ccc(C(=O)NC3CCCCCC3)cc21 here?
The Potency was inconclusive: 44.7 µM [inhibitor, partial curve, poor fit].
